Test results as given in ChEMBL document CHEMBL1201862, “PubChem BioAssay data set” (2004).

Each molecule was assayed on NCI-H322M (assay: DTP human tumour cell line panel, 48 h).
For `N=C(Cc1ccccc1)NCC(=O)O`, the GI50 was inactive: > 100 µM. With `CC(C)N(CC(=O)O)CC(=O)O` the GI50 was inactive: > 100 µM. In the case of `CN1CCN(c2ccc([N+](=O)[O-])c3no[n+]([O-])c23)CC1`, the GI50 is reported as inactive: 1.66 µM. With `CC(C)(C)C(=O)Nc1cccc(-c2ccc[nH]2)n1` the GI50 was inactive: > 100 µM. In the case of `Cn1ccc(=NS(=O)(=O)c2ccccc2)cc1`, the GI50 is reported as inactive: > 100 µM. For `C[C@@H](CO)C1=C(O)C(=O)c2c(ccc3c2CCCC3(C)C)C1=O`, the GI50 was inactive: 42.6 µM. `Nc1c(Cl)ncnc1NCCCCCCCCCCCCNc1ncnc(Cl)c1N` was tested, and the GI50 was inactive: 4.76 µM. With `O=C(c1ccc(Cl)cc1)C1OC12C(=O)Nc1ccccc12` (centres undefined) the GI50 was inactive: 29.1 µM. With `Nc1ncnc2c1ncn2C1CC(OCc2ccccc2[N+](=O)[O-])C(CO)O1` (centres undefined) the GI50 was inactive: 22.3 µM. In the case of `CCOP(=O)(OCC)OC1CC(n2cc(C)c(=O)n(C)c2=O)OC1CO[Si](C)(C)C(C)(C)C` (centres undefined), the GI50 is reported as inactive: > 100 µM. In the case of `Cc1ccccc1/N=N/c1ccc(/N=N/c2c(O)ccc3cc(S(=O)(=O)O)cc(S(=O)(=O)O)c23)c(C)c1`, the GI50 is reported as inactive: > 100 µM. `S=c1nc2c(c[nH]1)C1c3ccccc3C2c2ccccc21` was tested, and the GI50 was inactive: > 100 µM. For `COc1ccc2[nH]c3c(C)c4ncccc4c(C)c3c2c1`, the GI50 was inactive: 5.46 µM. For `C=C1CN(C2=NCCO2)C1`, the GI50 was inactive: > 100 µM. With `COC(=O)C(C(=O)C(=O)Nc1ccc(OC)cc1[N+](=O)[O-])c1nc2cc(C)c(C)cc2nc1O` (centres undefined) the GI50 was inactive: > 100 µM. `CN(C)CCNc1ccc(NCCN(C)C)c2c1C(=O)c1ncsc1C2=O` was tested, and the GI50 was inactive: 13 µM. In the case of `CC(C)CC(=O)NC(NC(C)C)(C(F)(F)F)C(F)(F)F`, the GI50 is reported as inactive: > 100 µM. For `Cc1nc2c(nc1C)-c1c(c3c(n1C)C(=O)CCC3)C(=O)C2=O`, the GI50 was inactive: 1.93 µM. With `CCN(CC)CC(C(C)=O)C(c1ccccc1)c1c(O)c2ccccc2oc1=O` (centres undefined) the GI50 was inactive: > 100 µM. In the case of `Nc1ncnc2c1ncn2C1CCC(CP(=O)(O)O)C1` (centres undefined), the GI50 is reported as inactive: > 100 µM. In the case of `Brc1ccc(-c2nnc(-c3nn(-c4ccccc4)c4nc5ccccc5nc34)o2)cc1`, the GI50 is reported as inactive: > 100 µM. For `CCc1ccc2oc(=O)ccc2c1`, the GI50 was inactive: > 100 µM. For `O=C1/C(=C\c2ccccc2)c2ccccc2N1/N=C\c1ccccc1`, the GI50 was inactive: 91.2 µM. For `CCCCCCCCCCSCC(CO)NC(=O)/C=C/c1c(C)[nH]c(=O)[nH]c1=O` (centres undefined), the GI50 was active: 710 nM and active: 1.07 µM. For `c1ccc2nc3c(nc2c1)sc1ccccc13`, the GI50 was inactive: 26.4 µM. `O=C(Cc1nc2ccc(C(=O)c3ccccc3)cc2nc1O)C(=O)Nc1ccc(Br)cc1` was tested, and the GI50 was inactive: > 100 µM. In the case of `COc1cc2ccc3c4cc(OC)c(OC(C)C)cc4cnc3c2cc1OC`, the GI50 is reported as inactive: > 100 µM. In the case of `N#CC(C(=O)CCC(=O)Nc1cccc(C(F)(F)F)c1)c1ccc(Cl)cc1` (centres undefined), the GI50 is reported as inactive: > 100 µM. In the case of `COc1cc2cnc3c4cc(OC)c(OC(C)C)cc4ccc3c2cc1OC`, the GI50 is reported as inactive: > 100 µM. For `CC(NC(=N)N)C(=O)O` (centres undefined), the GI50 was inactive: > 100 µM. `COc1ccc2c(C(=O)c3c(C)n(CCN4CCOCC4)c4ccccc34)cccc2c1` was tested, and the GI50 was inactive: > 100 µM. In the case of `CC(C)c1cccc(C(C)C)c1NC(=S)NN=C1C=C(C(C)(C)C)C(=O)C(C(C)(C)C)=C1`, the GI50 is reported as inactive: 32.3 µM. `Cc1ccc(OCC2OC(n3cnc4c(Br)nc(Br)nc43)CC2Oc2ccc(C)cc2)cc1` (centres undefined) was tested, and the GI50 was inactive: 4.08 µM. With `O=[N+]([O-])c1ccc2c(c1)S(=O)(=O)N1Cc3ccccc3CCN21` the GI50 was inactive: > 100 µM. In the case of `COCC#C[C@@]1(O)CCCCC1CC(OC)OC` (some centres undefined), the GI50 is reported as inactive: > 100 µM. `O/N=C(/CC(O)(C(F)(F)F)C(F)(F)F)c1ccccc1` was tested, and the GI50 was inactive: > 10 µM. In the case of `N#CC(NC12CC3CC(CC(C3)C1)C2)c1ccccc1` (centres undefined), the GI50 is reported as inactive: > 100 µM. With `COc1c(O)c2c3c(cc(C)cc3c1C(C)C)OC2` the GI50 was inactive: > 100 µM. With `C/N=C(\Nc1cccc(C(F)(F)F)c1)SCc1ccc(N=C=S)cc1` the GI50 was inactive: 17.5 µM. `O=C1C2CC=CCC2C(=O)N1n1c(Cc2ccc(Cl)cc2)n[nH]c1=O` (centres undefined) was tested, and the GI50 was inactive: > 100 µM. `C1CN(c2nnc(N3CCC3)nn2)C1` was tested, and the GI50 was inactive: > 100 µM. In the case of `COC(=O)[C@@]1(C)/C(=N/NS(=O)(=O)c2ccc(C)cc2)CCC[C@@H]1C`, the GI50 is reported as inactive: > 100 µM. With `C[P+](C)(C)C` the GI50 was inactive: > 100 µM. `COc1cc(C2SCC(=O)N2c2ccc(-c3ccc(-n4c(-c5ccccc5)nc5ccccc5c4=O)cc3)cc2)ccc1O` (centres undefined) was tested, and the GI50 was inactive: > 100 µM. With `CCOC(=O)c1c[nH]c2cc3c(cc2c1=O)CCS3(=O)=O.CCOC(=O)c1c[nH]c2ccc3c(c2c1=O)S(=O)(=O)CC3` the GI50 was inactive: > 100 µM. With `CCCCCCCCCCCCCCCCOCC(CN(C)CCN(C)C)OCCCCCCCCCCCCCCCC` (centres undefined) the GI50 was inactive: > 100 µM. With `CC(C)(N)C(=O)N[C@@H]1C(=O)N2[C@@H]1SC(C)(C)[C@@H]2C(=O)O` the GI50 was inactive: > 100 µM. For `COC(=O)C1=C(C)N(NC(=O)c2cccc(Cl)c2)C(C)(O)C12CCOC2=O` (centres undefined), the GI50 was inactive: > 100 µM. For `C=C(Cl)C(Cl)(CBr)CCCC(C)(C)Cl` (centres undefined), the GI50 was inactive: 12.5 µM. `CCN(CC)/N=N/c1c(C(N)=O)n[nH]c1C` was tested, and the GI50 was inactive: > 100 µM. For `NS(=O)(=O)c1nnc(NS(=O)(=O)c2ccccc2C(=O)O)s1`, the GI50 was inactive: > 100 µM. `N=C(N)Nc1ccc(CC(N)C(=O)NCC(=O)C(CC(=O)O)c2ncc(NC(=O)C(F)(F)F)o2)cc1` (centres undefined) was tested, and the GI50 was inactive: > 25 µM. With `CCC/C=C/C=C/C(=O)OC1C(C)C2(O)C3C=C(C)C(=O)C3CC(COC(C)=O)=CC2C2C(C)(C)C12OC(=O)C(C)C` (centres undefined) the GI50 was inactive: 27 µM. `CC(C)(C)C(=O)N(C(=S)OCc1ccccn1)c1ccccc1` was tested, and the GI50 was inactive: 66.5 µM. For `O=[N+]([O-])/C(C(Cl)=C(Cl)Cl)=C1\NCCO1`, the GI50 was inactive: > 100 µM. With `CN(C)/C=N/CCN1CCOCC1` the GI50 was inactive: > 100 µM. In the case of `COC(=N)C12C(N)=NC(OC)(OC)C1(C#N)C21C(=O)N(c2ccccc2)N=C1C` (centres undefined), the GI50 is reported as inactive: > 100 µM. `COC(=O)C1=C(C(=O)OC)C2(c3ccccc3)c3ccccc3C(=O)C1N2C1CCCCC1` (centres undefined) was tested, and the GI50 was inactive: > 100 µM. With `CC(C)C1=CC23CCC4C(C)(C(=O)O)CCCC4(C)C2CC1C1C(=O)N(c2ccccc2)C(=O)C13` (centres undefined) the GI50 was inactive: 31.6 µM. In the case of `COC(=O)[C@]1(C)CCC[C@]2(C)C3CC4OOC3(C=C4C(C)C)CCC21` (some centres undefined), the GI50 is reported as inactive: 22.3 µM. `O=C(O)CCC(=O)c1ccc2ccc3cccc4ccc1c2c34` was tested, and the GI50 was inactive: 79.4 µM. For `CC/C=C/c1cc2c(cc1O)CCC1C2CC[C@@]2(C)C1CC[C@@H]2O` (some centres undefined), the GI50 was inactive: 2.48 µM. For `CCCCCCCC[N+](C)(C)Cc1ccc(C[N+](C)(C)CCCCCCCC)cc1`, the GI50 was inactive: 39 µM. With `COc1ccc(C2C(Cl)C(=O)N2NC(=O)c2ccccc2O)cc1` (centres undefined) the GI50 was inactive: > 100 µM. With `Cc1ccc(O)c(C(=O)CCCC(=O)c2cc(C)ccc2O)c1` the GI50 was inactive: > 100 µM. For `CN(C)c1ccccc1CN1CCCN(Cc2ccccc2N(C)C)C1c1ccncc1`, the GI50 was inactive: 11.6 µM. `Nc1nc(Sc2ccc([N+](=O)[O-])c3nonc23)c2nc[nH]c2n1` was tested, and the GI50 was inactive: 6.11 µM. With `O=C(O)CC(Cc1ccccc1Cl)C(=O)O` (centres undefined) the GI50 was inactive: > 100 µM. `O=[N+]([O-])c1cc(-[n+]2cc([O-])on2)ccc1F` was tested, and the GI50 was inactive: 17.1 µM.

Values joined by “and” are separate entries in the source; they are usually repeats but may differ in a detail not shown here. Equal entries are not always repeated.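 Five compound concentrations were applied to cells in 96-well plates for 48 hours; endpoints were derived by simple linear interpolation of the resulting dose-response curve. Here, GI50 denotes the concentration required for 50% inhibition of growth.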 Active and inactive are the calls of the source. No stated cut-off is given here; in the data, active = GI50 up to about 1.1 µM and inactive = higher.
